# Measurements as given in publication PMC6212790.
# The other results are listed elsewhere or left out. At the low end of the ranking the order means little.
# Target: T1, GST-Rok-C97-191 (UniProt O34857)
# T1 sequence: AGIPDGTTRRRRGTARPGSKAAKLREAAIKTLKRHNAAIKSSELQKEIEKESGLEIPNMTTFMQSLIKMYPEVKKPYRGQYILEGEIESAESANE
# Assay: protein binding microarray;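 further: rank score from −0.5 (least bound) to 0.5 (best bound)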
# Conditions: Rok is a gene silencer of Bacillus subtilis; high values mean tight binding; most listed sequences are background and not binding sites; double strand, one strand shown
row,Sequence,binding signal [E-score]
1,GTCACGAC,-0.118
2,CGAAGAAC,-0.099
3,AGATGTTG,-0.0437
4,AGCCGGGA,-0.162
5,CTCGGTGC,-0.0579
6,CCCAGTTC,-0.205
7,CAAACACG,0.0112
8,ACCATGGC,-0.0256
9,AAGATGTC,-0.253
10,CTGGTTGA,-0.0916
11,ACGTATCT,0.238
12,ATGCTGAC,-0.0948
13,ATGTCGCG,-0.0211
14,CGGGAATA,0.0987
15,GGTGTTTA,0.101
16,AAATAAGT,0.215
17,ACAAATCG,0.0972
18,TAGTCGGA,0.133
19,AGGTAAAG,0.00717
20,TATCTCAA,0.205
21,ATCCAAGC,-0.0917
22,AATAATAC,0.335
23,ACCCTGCC,-0.226
24,AAAAATTT,0.128
25,TGCATTAA,0.0933

row,Sequence,binding signal [E-score]
1,CAACAAGG,-0.111
2,AACTCGAT,-0.157
3,CGGGACCG,-0.162
4,AGCCGTGC,-0.0569
5,AACCTTTA,0.147
6,TAGAGCTA,0.0867
7,ACTCGAAC,0.0548
8,GATATTCA,0.103
9,ACGCCATC,-0.0625
10,CCAGCGGG,-0.311
11,ACTGGCTG,-0.139
12,GAGCACTA,-0.15
13,ATTTACAG,0.145
14,AGTCGCTC,-0.292
15,CCCTTCCC,-0.235
16,ACACACCA,-0.00894
17,ACATCGCA,-0.0687
18,CAACACGC,-0.145
19,CGTACCAG,-0.239
20,GTATCAAC,0.0877
21,ACTCCCAG,-0.0931
22,TTCATCAA,-0.0101
23,AGGGGCGA,-0.351
24,AGTTCTAG,0.236
25,CCGTAGGA,-0.257

row,Sequence,binding signal [E-score]
1,ACCGTCAG,-0.0893
2,AGGTCTGG,-0.123
3,CCAATCGG,-0.274
4,TTCCTAAA,0.0647
5,AATTCCTC,-0.0519
6,ACTGCGAT,0.0198
7,AGGCTGAT,-0.0135
8,CCAATGAC,-0.298
9,AAGACACC,-0.185
10,GACCGTGC,-0.013
11,GTACTGAC,0.139
12,GAATACTC,0.0644
13,AAAGGCTA,-0.0111
14,GACACCCC,-0.19
15,AGAGAGAC,-0.149
16,CCAATCAC,-0.159
17,GGAAAATA,0.331
18,AGTGGGAT,-0.0625
19,AGATTTTC,0.163
20,GCGGTGGA,-0.152
21,AGCACAAA,0.15
22,ACCTTTGA,-0.119
23,AGCAGGTG,-0.296
24,ACAATCCT,0.0943
25,ACTTGGAC,0.0459

row,Sequence,binding signal [E-score]
1,ACGCTGCG,-0.221
2,CCCTACCC,-0.235
3,AATCATAC,0.224
4,CGCGTGTC,-0.236
5,TCCTCACA,-0.0975
6,GAGAACTC,-0.264
7,CATGAGAC,-0.195
8,CCAACCCC,-0.414
9,CGATGAAG,0.0349
10,AAATACAC,0.25
11,AGTTACTA,0.293
12,ACCCACAG,-0.173
13,AATCAATA,0.227
14,CCAGTTAA,0.0719
15,AATCCTGC,-0.0311
16,AGTTGTGG,0.017
17,AACCCCAA,-0.178
18,GCGAGAGC,-0.214
19,CCAAGGGG,-0.266
20,GCAGAGGC,-0.301
21,AACCCGAT,-0.0936
22,GAGCGCAC,-0.163
23,CTTGCTTA,-0.148
24,CGAGAGCA,-0.155
25,CGGCCCCG,-0.371

row,Sequence,binding signal [E-score]
1,ATAAGTCC,0.221
2,CCCGTCCG,-0.169
3,ACTCCTTC,-0.0807
4,GACAGCGC,-0.0791
5,GTCAATTA,0.163
6,GAACCTGA,-0.0577
7,CCCATTGA,-0.0701
8,AGGACCTG,-0.227
9,AGAATCCC,0.0269
10,ATGCCGTG,-0.0933
11,ATCGCACC,-0.112
12,AACAGTAC,0.174
13,GGGCGTGA,-0.236
14,ACCACGCC,-0.112
15,ATGTAGCC,0.0279
16,ATCCTTGG,0.0799
17,CGGAGACC,-0.187
18,CCTTGAAA,-0.102
19,ACGTGTCA,-0.105
20,GGCTTCGA,-0.168
21,AGACTTCA,-0.0306
22,AGCTCTGC,-0.113
23,AGTATCGA,0.174
24,AACGCTTA,-0.146
25,GCTTATTA,0.139

row,Sequence,binding signal [E-score]
1,ACGACGCC,-0.0401
2,GACGGATA,-0.0695
3,CCAGTCAA,-0.0685
4,ACTGACGG,-0.0188
5,TAGGTAAA,0.247
6,ACCCCAAT,-0.302
7,CTGATTGA,-0.0577
8,CTACTGAA,0.098
9,CTTTCACC,-0.1
10,AATTGCCA,0.0565
11,AAGGTTGT,0.0839
12,TAGCGTCA,0.0381
13,ACCAGCAC,-0.0476
14,ACGTAGCC,-0.0588
15,AAGTACGC,0.0594
16,TAGATTGA,0.215
17,CTTGGACA,-0.00956
18,ACCGTAGT,0.0984
19,AGGCGGTG,-0.105
20,ACTTGTGA,0.0614
21,AGCACATC,0.0373
22,AGACTGGG,-0.148
23,GAGGCAGA,-0.221
24,GTCTCAAC,-0.0902
25,ACTGTACA,0.24

row,Sequence,binding signal [E-score]
1,TCGTGCCA,-0.0952
2,GCCTCCCA,-0.401
3,CAATCTAA,0.232
4,GGAAAGAA,-0.0711
5,TCGTTCCA,-0.124
6,AGCTGGCA,-0.12
7,AGGGAGTA,-0.0478
8,AACATCCC,-0.0913
9,GGGCATGA,-0.238
10,ATGAAAGG,-0.108
11,ACCGAATA,0.167
12,ACCGACGG,-0.255
13,CGGGAACG,-0.099
14,CGGGGAAA,-0.0446
15,CACCCCGC,-0.176
16,CCAGAGCA,-0.296
17,ATTAGAAC,0.0664
18,CTAGTGCA,0.0533
19,AGTGAATA,0.13
20,CACATGGA,0.0882
21,AATAGAGA,0.217
22,ATCCCACG,-0.061
23,CAATAGTA,0.33
24,CCTAAAAC,0.0152
25,TGCTGCAA,-0.156

row,Sequence,binding signal [E-score]
1,AAAGTACG,0.192
2,ATTGTCGA,0.0851
3,CTCGTTTC,-0.115
4,CGCCTTAG,-0.187
5,CAAAAGGA,-0.239
6,TCGGACAA,-0.0681
7,CGTGACAG,-0.272
8,TAATACCA,0.269
9,GGTAGGCA,-0.102
10,AGCAGTAC,0.14
11,ACGTTAGT,0.202
12,CTCGAGAG,-0.098
13,ACGTTAGG,0.0601
14,GATACAAC,0.107
15,ACGATTAT,0.0422
16,AAAAGCAC,-0.0851
17,CGGCTAAA,0.000683
18,GGCGTCCC,-0.269
19,ACCTGATC,0.013
20,ATGGCTCC,-0.0781
21,CCTCGGCC,-0.299
22,ACCTGACG,-0.133
23,AAGGGGAG,-0.218
24,AGATCGGC,0.0528
25,GATTAGGC,-0.111

row,Sequence,binding signal [E-score]
1,TACAAAGA,0.0887
2,CATTAGGG,-0.233
3,TCATGCGA,-0.0873
4,CAGACAGA,-0.111
5,GTTCGCAA,0.00581
6,CCGGGTAG,-0.0837
7,CACGCGAC,-0.0301
8,ATGTATAC,0.308
9,ACTTGCCC,-0.182
10,TTAATCAA,-0.108
11,CGGAACCC,-0.139
12,GGCGCTCA,-0.246
13,GTTGGAAA,-0.0521
14,CCGGCCTC,-0.299
15,ATCACCAG,0.0525
16,CGCCCGAA,-0.141
17,CGATCTCC,-0.256
18,CCCGCGTC,-0.225
19,ACGGATGC,-0.0285
20,AACCGGGG,-0.276
21,GATGCCGA,-0.0224
22,GACCTAGC,-0.0362
23,CTAAGCTA,0.242
24,ATGTAGTG,0.163
25,AAGCCCCT,-0.265

row,Sequence,binding signal [E-score]
1,ATTAGCCA,0.00279
2,CTTGCCGA,-0.183
3,ATCTCCGA,0.0447
4,AAACTTGC,0.0608
5,AACAAATA,0.24
6,GAGGTTCC,-0.202
7,GACACAGC,-0.0384
8,GCCACGGC,-0.25
9,ACGCCACC,-0.111
10,GATAGGCA,-0.0595
11,AATCGCGA,0.122
12,ATCCAGAT,-0.142
13,CCAGTGAG,-0.165
14,TCAGGCCA,-0.222
15,ATTGATAG,0.348
16,GCCAGGAC,-0.223
17,GAATGTGC,-0.088
18,ACAAGCTC,-0.0971
19,CTAAGGAC,0.0801
20,GCTCCAGC,-0.142
21,TTAACCAA,0.177
22,CCGAAAAC,0.168
23,CTGGGGTA,0.0634
24,CACGGTCG,-0.219
25,AGAGCCCT,-0.204

row,Sequence,binding signal [E-score]
1,GATTACAA,0.134
2,CTGTCTAC,0.131
3,ATGTAGCG,0.163
4,CACGAGTC,-0.301
5,TAGTTTAA,0.345
6,CATTCTGC,-0.173
7,CTTGCTCC,-0.166
8,ACTGCCCC,-0.297
9,CTAGTAAA,0.289
10,AGCGAGCA,-0.125
11,AACCTTCT,-0.0307
12,AAATATGA,0.146
13,CCCACATC,-0.214
14,GCGTGCTA,0.174
15,GGGACAGA,-0.0866
16,CACGAAAG,-0.0455
17,CCCTTTGA,-0.221
18,CCTTTCTC,-0.255
19,CGTACGCA,-0.0365
20,GAAAGGGA,-0.179
21,CCAAAATC,0.0449
22,AATCTCAA,0.0271
23,ATTTATCG,0.266
24,GACGCGTA,-0.0333
25,ACGGGCCA,0.0456

row,Sequence,binding signal [E-score]
1,AAGCACCT,-0.185
2,CAGGAGTC,-0.0656
3,CGCTCGCA,-0.29
4,CTCGTCCA,-0.343
5,ACTCGAAA,0.136
6,GACACAAA,0.034
7,CACAATGG,-0.137
8,AATGGGCC,-0.26
9,GATGAATA,0.11
10,CCGTCCGA,-0.193
11,ATCATCTG,0.141
12,ATATGCTA,0.241
13,CGCTAGCG,0.113
14,GAATGCCA,0.0134
15,GTGCAGAA,-0.108
16,ATACTGAA,0.0579
17,GTACGTAC,0.245
18,TGACTGAA,-0.00419
19,GGCCCGAA,0.0312
20,CAAACCTA,0.109
21,CCCACGGA,-0.256
22,GAACCAGA,-0.123
23,AAGTAAGG,0.0741
24,ATATCTCA,0.23
25,GGTTACTA,0.121

row,Sequence,binding signal [E-score]
1,CCTATAAG,0.0895
2,GGACGCTA,-0.0578
3,GGTTACCA,-0.245
4,ATATGACA,-0.00716
5,AAGGCGTA,-0.0982
6,ATCGGGTC,-0.251
7,CCTTGGGA,-0.216
8,AGGAGATG,-0.179
9,ACTTCATC,-0.0418
10,GACCTCCA,-0.271
11,GATATATC,0.403
12,GTTTGTAA,0.102
13,ACGAGGTA,-0.223
14,AACCGCCT,-0.194
15,CAGTCGAA,-0.198
16,CCTTTTTC,-0.173
17,TCCACCCA,-0.113
18,CTGACAGC,-0.172
19,ACCAATGA,-0.027
20,CTCACTGC,-0.0656
21,CATGTAGC,0.304
22,CTCGAGGC,-0.181
23,CGGCCCAG,-0.203
24,AATCACGC,0.0805
25,AAGGTAGG,-0.00436

row,Sequence,binding signal [E-score]
1,AAATGCTC,-0.016
2,AGCGGACC,-0.212
3,AGGGTACC,-0.245
4,CGGGTTGC,-0.436
5,GATAATCC,0.137
6,CCCGTTCA,-0.0135
7,GCCTAAAC,-0.107
8,GGCCATCA,-0.077
9,ATCCGTGA,-0.00698
10,CGGGAAAG,-0.0932
11,AGTGCGGA,0.0282
12,ACTGTTGC,0.119
13,AGAAGTGA,0.101
14,CGCTACCG,-0.00601
15,AGAGGGAT,-0.0368
16,AAGAGCCT,-0.267
17,AATTTGGT,0.212
18,TATTGAAA,-0.0926
19,CGATATTC,0.167
